Measured values taken from PubChem BioAssay AID2546 (National Center for Advancing Translational Sciences (NCATS), 2010).
Out of some 310,000 compounds screened, about 11,000 (3.5%) were called active. Inconclusive means that the source gave no clear call. Such entries were picked first, then a sample of the others. Calls come from the whole dose curve; as a rule, active = well fitted inhibition curve with a large enough effect; inconclusive = small, poorly fitted or top-dose-only effect, or effect the other way; inactive = flat fitted curve, though single readings scatter. No potency is given beside an inconclusive call; the fits are too rough.
Potency is the fitted concentration of half-maximal effect; tags give direction and shape of the fitted curve.

Assay: VP16 counterscreen qHTS for inhibitors of ROR gamma transcriptional activity;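 note: Gal4-VP16 expression switched on by copper sulfate through the metallothionein promoter; nearly all actives have a fitted effect of over 50% in size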
Details: Drosophila S2 Gal4-VP16 UAS-luciferase, luminescence, 20 h; series mostly up to 53.6 µM
For `CCn1c(N2CCN(S(=O)(=O)c3ccc(Cl)cc3)CC2)nc2ccccc21`, the Potency was inconclusive [inhibitor, single point]. With `CC(C)(C)C(=O)NC(=S)Nc1sc2c(c1C#N)CCCCC2` the Potency was active: 14.1 µM. With `O=C(CCC(=O)N(CC(=O)NC1CCCCC1)Cc1cccs1)Nc1ccccn1` the Potency was “inactive”. With `CN1c2ccccc2C(O)=C(C(=S)Nc2ccc(Cl)cc2)S1(=O)=O` the Potency was inconclusive [inhibitor, single point]. For `CN(Cc1ccccc1)C(=O)CN1C(=O)c2ccc([N+](=O)[O-])cc2C1=O`, the Potency was inconclusive [inhibitor, single point]. With `Cc1ccccc1CSCC(=O)NC1CCCC1` the Potency was inconclusive [inhibitor, single point]. In the case of `CCC1CCCCN1CCCNC(=O)c1ccc(/C=C2/Sc3ccccc3NC2=O)cc1` (centres undefined), the Potency is reported as inconclusive [inhibitor, single point]. For `COc1cccc(C(=O)NCC(c2cccnc2)N2CCN(c3ccccc3OC)CC2)c1` (centres undefined), the Potency was inconclusive [inhibitor, single point]. For `O=C(CSc1ccc2ccccc2n1)Nc1ccc(N2CCOCC2)cc1`, the Potency was inconclusive [activator, full curve, poor fit]. With `O=c1c2ccccc2cnn1Cc1n[nH]c(=S)n1-c1ccc(Cl)cc1` the Potency was inconclusive [activator, single point]. For `CCNc1nc(NC(C)C)nc(NS(=O)(=O)c2ccc(Cl)cc2)n1`, the Potency was “inactive”. With `CCN(CC)S(=O)(=O)c1cccc(C(=O)Nc2cc3oc4ccccc4c3cc2OC)c1` the Potency was “inactive”. In the case of `N#Cc1ccsc1NC(=O)CCc1ccccc1`, the Potency is reported as inconclusive [activator, partial curve, poor fit]. With `Cc1cc(Br)c2nc3c(c(C(=O)O)c2c1)CCCCC3` the Potency was “inactive”. In the case of `CCOc1ccc(-n2c(N)c(-c3nc4ccccc4[nH]3)sc2=S)cc1`, the Potency is reported as inconclusive [inhibitor, single point]. In the case of `Cc1ccc2cc(C#N)c(N3CCCN(C(=O)C4CCCO4)CC3)nc2c1C` (centres undefined), the Potency is reported as “inactive”. In the case of `Cc1nnc(NC(=O)c2ccc(S(=O)(=O)N3CC(C)CC(C)C3)cc2)o1` (centres undefined), the Potency is reported as active: 1.41 µM. For `CCN(Cc1ccccc1)S(=O)(=O)c1ccc(C(=O)N(CCCN(C)C)c2nc3c(F)cccc3s2)cc1`, the Potency was inconclusive [inhibitor, single point]. With `Cc1cccc(NC(=O)c2cc3ccccc3oc2=O)c1` the Potency was inconclusive [inhibitor, partial curve]. In the case of `O=C(N/N=C/c1cc(Cl)cc([N+](=O)[O-])c1O)c1ccc2c(c1)OCO2`, the Potency is reported as active: 0.891 µM. For `Cc1cc(C)n(-c2ccc(C(=O)NCCCN3CCOCC3)cc2)n1`, the Potency was “inactive”. In the case of `COc1ccc(NC(=O)C2C3C=CC(C3)C2C(=O)NCc2ccco2)cc1` (centres undefined), the Potency is reported as “inactive”. For `Cc1ccc(S(=O)(=O)Cc2ccc(C(=O)NCc3ccc4c(c3)OCO4)o2)cc1`, the Potency was inconclusive [inhibitor, single point]. With `FC(F)(F)c1ccc(/C=N/NC(=S)NC2CCCCC2)cc1` the Potency was active: 4.47 µM. For `O=C(Nc1sc2c(c1C(=O)O)CCCCC2)c1ccco1`, the Potency was inconclusive [inhibitor, single point]. For `CCCCc1cc(-c2n[nH]c(=S)o2)c2ccccc2n1`, the Potency was “inactive”. For `CC(C)c1ccc(N2C(=NC(=O)C3CCCO3)SC3CS(=O)(=O)CC32)cc1` (centres undefined), the Potency was “inactive”. For `COC(=O)c1c(OC)cc2c(c1C)Oc1c(Cl)c(O)c(Cl)c(C)c1C(=O)O2`, the Potency was inconclusive [inhibitor, single point]. With `CCCCn1c(NC(=O)c2ccccc2)c(C#N)c2nc3ccccc3nc21` the Potency was inconclusive [inhibitor, single point]. With `CC(Oc1ccccc1)C(=O)N=Nc1c(O)[nH]c2ccc([N+](=O)[O-])cc12` (centres undefined) the Potency was inconclusive [inhibitor, single point]. For `COc1ccc(NC(=O)C(=O)Nc2cccc3cccnc23)cc1OC`, the Potency was active: 2.82 µM. In the case of `COc1cccc(NC(=O)Cc2nnc(SCC(=O)NC3CCCC3)n2C)c1`, the Potency is reported as “inactive”. In the case of `COc1ccc(CNC(=S)NCc2ccc(F)cc2)cc1`, the Potency is reported as inconclusive [inhibitor, single point]. For `CCn1cc(C(=O)N2CC(C)CC(C)C2)c(=O)c2cc(S(=O)(=O)N(C)C)ccc21` (centres undefined), the Potency was “inactive”. In the case of `NNC(=O)c1ccc(COc2ccc3c(c2)CCC3)o1`, the Potency is reported as inconclusive [inhibitor, single point]. In the case of `COc1ccc(N2CCc3c(C)nc4c(OC)cc(OC)cc4c32)cc1`, the Potency is reported as “inactive”. In the case of `CC1(C)Cc2ccccc2-c2[nH]c(=S)[nH]c(=O)c21`, the Potency is reported as inconclusive [inhibitor, single point]. With `O=c1c2ccccc2[nH]c(=S)n1CCC1=CCCCC1` the Potency was active: 1.41 µM. With `O=S(=O)(/N=C(/NC(=S)Nc1ccccc1)c1ccccc1)c1ccc(Cl)cc1` the Potency was inconclusive [inhibitor, single point]. For `CN(C)c1ccc(-c2cncnc2NCc2ccccc2)cc1`, the Potency was “inactive”. With `Oc1ccc2ccccc2c1CN1CCN(C/C=C/c2ccccc2)CC1` the Potency was inconclusive [inhibitor, single point]. With `Cc1ccc(C(=O)COc2ccccc2-c2ccccc2)cc1` the Potency was inconclusive [inhibitor, single point]. With `O=[N+]([O-])c1cc(-c2nnc(Nc3ccc(O)cc3)c3ccccc23)ccc1N1CCOCC1` the Potency was inconclusive [inhibitor, single point]. With `CN(Cc1ccccc1)c1ccc2nnc(-c3ccccc3)n2n1` the Potency was “inactive”. For `O=C(NC(NC(=S)Nc1ccc(Cl)c(Cl)c1)C(Cl)(Cl)Cl)c1ccco1` (centres undefined), the Potency was inconclusive [inhibitor, single point]. With `Cc1ccc(NS(=O)(=O)c2ccc(C(=O)N3CCN(c4ncccn4)CC3)cc2)cc1` the Potency was active: 1.26 µM. In the case of `COc1ccccc1N1CCN(C(=O)Cn2c(=O)oc3cc(S(=O)(=O)N4CCCC4)ccc32)CC1`, the Potency is reported as “inactive”. In the case of `CCOc1ccc(NC(=O)CN(C)c2nnnn2-c2ccccc2)cc1OCC`, the Potency is reported as “inactive”. For `O=C(NNC(=S)NC(=O)c1ccc(F)cc1)c1cccnc1`, the Potency was inconclusive [inhibitor, single point]. In the case of `CCCOC(=O)c1ccc(-c2ccc(C=O)o2)cc1`, the Potency is reported as inconclusive [inhibitor, single point]. In the case of `CCOC(=O)N1CCC(N2Cc3cccc(C(=O)N4CCN(c5cccc(C)c5C)CC4)c3C2=O)CC1`, the Potency is reported as inconclusive [inhibitor, single point]. With `Cc1ccc(-n2ncc3c(NCc4cccnc4)ncnc32)cc1C` the Potency was inconclusive [inhibitor, single point]. With `O=C(CCc1ccccc1)Nc1nnc(-c2ccc3c(c2)CCCC3)o1` the Potency was inconclusive [inhibitor, single point]. With `CCNC(=S)N1CCN(c2nc(-c3cccc(OC)c3)cs2)CC1` the Potency was inconclusive [activator, single point]. In the case of `C=C(C)CNC(=S)N/N=C(\C)c1ccc(OC)cc1`, the Potency is reported as active: 5.01 µM. In the case of `CCOc1ccc(NC(=O)NCc2ccc3c(c2)OCO3)cc1`, the Potency is reported as “inactive”. In the case of `O=C(NCc1cccs1)C1CCN(c2nccs2)CC1`, the Potency is reported as “inactive”. With `COc1ccc(C(=O)OC(C)C(=O)Nc2cc(C(F)(F)F)ccc2Cl)c(OC)c1OC` (centres undefined) the Potency was inconclusive [inhibitor, partial curve, poor fit]. For `O=C(CCc1nnc(CCC2CCCCC2)o1)NCCc1cccnc1`, the Potency was inconclusive [inhibitor, partial curve]. With `CCCCOP(=O)(OCCCC)C1(NS(=O)(=O)c2ccccc2)C=CC(=O)c2ccccc21` (centres undefined) the Potency was “inactive”. In the case of `CC(=O)NC(Cc1cccc(F)c1)C(=O)NC1CCN(c2nnnn2-c2ccccc2)CC1` (centres undefined), the Potency is reported as “inactive”. For `N#Cc1sc2nc(N3CCCCC3)c3c(c2c1N)CCCC3`, the Potency was inconclusive [inhibitor, single point]. For `CCCCc1nc2cc(C(=O)NCc3nccn3CC)ccc2o1`, the Potency was inconclusive [inhibitor, single point]. For `CC1(C)Cc2c(sc(NC(=O)Nc3ccccc3)c2C(N)=O)CO1`, the Potency was inconclusive [activator, full curve, poor fit]. For `CC(=O)N1CCc2c(sc(NC(=O)CCS(=O)(=O)c3ccccc3)c2C#N)C1`, the Potency was inconclusive [inhibitor, single point]. For `COc1ccc(C2c3ccc4ccccc4c3Oc3ncn(CCO)c(=N)c32)cc1` (centres undefined), the Potency was inconclusive [inhibitor, single point]. In the case of `COc1cc(S(=O)(=O)Nc2ccc(C)cc2)ccc1N=Cc1c(C)[nH]n(-c2ccc(C)cc2)c1=O`, the Potency is reported as “inactive”. With `C/C(=C1/SC(N2CCOCC2)=NC1=O)c1ccc(Cl)cc1` the Potency was “inactive”. For `Cc1ccc(Sc2ncccc2COC(=O)Nc2ccccc2)cc1`, the Potency was inconclusive [inhibitor, single point]. For `COc1ccc(CNc2ccc(S(N)(=O)=O)cc2)c(OC)c1OC`, the Potency was active: 20 µM. In the case of `Nc1cc2c(cc1O)CCCC2`, the Potency is reported as “inactive”. For `S=c1[nH]nc(-c2ccncc2)n1/N=C/C(Cl)=C\c1ccccc1`, the Potency was inconclusive [inhibitor, single point]. For `CC(/C=C1\SC(=O)N(CCCC(=O)O)C1=O)=C\c1ccccc1`, the Potency was active: 0.316 µM. With `COC(=O)C(C)Sc1nc2c(cnn2-c2ccc(Cl)cc2)c(=O)[nH]1` (centres undefined) the Potency was “inactive”.
